# T1: human Claudin 18.2 (human, UniProt P56856-2 1-261)
# T1 sequence (looked up): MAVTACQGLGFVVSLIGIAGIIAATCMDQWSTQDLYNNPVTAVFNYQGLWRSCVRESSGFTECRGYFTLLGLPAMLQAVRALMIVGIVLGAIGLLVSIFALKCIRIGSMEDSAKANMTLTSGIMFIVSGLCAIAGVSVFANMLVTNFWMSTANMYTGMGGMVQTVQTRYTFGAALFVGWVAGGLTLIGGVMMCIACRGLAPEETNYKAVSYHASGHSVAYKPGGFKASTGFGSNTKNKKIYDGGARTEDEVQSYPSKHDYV
# B1: CM311-18D10-VH6/VL1-ADC (other)
# heavy: QVQLQESGPGLVKPSETLSLTCTVSGGSISSNYAWNWIRQPPGKGLEWIGYIYYSGNTNYNPSLKSRVTISRDTSKNQFSLKLSSVTAADTAVYYCATSYYGNSFIYWGQGTLVTVSSASTKGPSVFPLAPSSKSTSGGTAALGCLVKDYFPEPVTVSWNSGALTSGVHTFPAVLQSSGLYSLSSVVTVPSSSLGTQTYICNVNHKPSNTKVDKRV[human IgG1 Fc skipped]
# light: DIVMTQSPDSLAVSLGERATINCKSSQSLLNSGNQKNYLTWYQQKPGQPPKLLIYWASTRESGVPDRFSGSGSGTDFTLTISSLQAEDVAVYYCQNAYSFPWTFGQGTKVEIKRTVAAPSVFIFPPSDEQLKSGTASVVCLLNNFYPREAKVQWKVDNALQSGNSQESVTEQDSKDSTYSLSSTLTLSKADYEKHKVYACEVTHQGLSSPVTKSFNRGEC
# modifications: MC-vc-PAB-MMAE coupled to free cysteine thiols of the DTT-reduced antibody; average DAR 3.8 per antibody; sites not stated
# How the values were obtained:
# human Claudin 18.2 [1] = molecular target: T1, human Claudin 18.2; assay: cell-based or functional assay
# human Claudin 18.2 [2] = molecular target: T1, human Claudin 18.2; assay: cell-based or functional assay; remark: listed apart in the source
binder,measurement,setting,value
B1,"EC50 of cell killing on KATO III cells, 96 h, PrestoBlue, 4-parameter fit",human Claudin 18.2 [1],0.0164 µg/mL
same,"Mean IC50 of cell killing, LT-1C8 cells (KATO stable cell line, medium Claudin 18.2 expression), 96 h, CCK-8 or Presto-Blue",human Claudin 18.2 [2],0.254 µg/mL
same,"Mean IC50 of cell killing, LT-M11 cells (KATO stable cell line, high Claudin 18.2 expression), 96 h, CCK-8 or Presto-Blue",human Claudin 18.2 [2],0.114 µg/mL
same,"Mean IC50 of cell killing, row without a cell line label printed under LT-M11 (taken as a second LT-M11 series)",human Claudin 18.2 [2],0.0511 µg/mL

# Reference: US20230381336A1 (SHANGHAI MIRACOGEN, published 2023)
